According to the RNAGym collection of RNA variant scans (doi:10.1093/nar/gkz1192):
Read counts are not given, so values of variants with three or more changes are uncertain.

B1: CPEB3 Ribozyme (parent)
chain: UAACAGGGGGCCACAGCAGAAGCGUUCACGUCGCAGCCCCUGUCAGAUUCUGGUGAAUCUGCGAAUUCUGCUGUAUAUCUC

Variants of: B1
Test: self-cleavage, relative activity (ratio to wild type); higher = more cleavage; in vitro, sequencing
Procedure, shortened: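 After error-prone PCR and barcoding, CPEB3 ribozyme mutant libraries were transcribed with T7 RNA polymerase at 37°C for 5 hours, then given 15 min with DNase I before an EDTA stop, and they cleaved during both steps. Reverse transcription with template switching preceded Illumina sequencing. Relative activity divides a variant's cleaved/total read fraction by the unmutated ribozyme's. At least 5 reads were required per variant, and three batches were averaged.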

Row | Variant | self-cleavage
1 | A5U A13U U26A C40U U58C U67C U72G | 0.06
2 | A5U A13U U26A U76A | 1.23
3 | A5U A13U U49C G53U U78A | 1.15
4 | A5U A13U U78C | 1.24
5 | A5U A15C G33A A45G A56U | 0.1
6 | A5U A15C U49G A56G U66C C71G U80C | 0.05
7 | A5U A15C U60A | 0.57
8 | A5U A15G A18G C39U A65G | 0.15
9 | A5U A15G A18U U25C | 0.39
10 | A5U A15G A21G U25C U26A U43C A75U | 0.53
11 | A5U A15G A28U A35U U41A U54C U67A | 0.13
12 | A5U A15G A28U U41A U60C U69C | 0.17
13 | A5U A15G A45G C62G U80C | 0.24
14 | A5U A15G C27A U76A | 0.09
15 | A5U A15G C37U U41A | 0.54
16 | A5U A15G G24A U51C | 0.34
17 | A5U A15G G33U A45U U54G A56G U69C | 0.1
18 | A5U A15G U25C G52A A64G U72A | 0.11
19 | A5U A15G U31C U60C A64U | 0.09
20 | A5U A15G U58A U78A | 0.47
21 | A5U A15G U72C | 1.15
22 | A5U A15G U74A | 1.04
23 | A5U A15U A21G U26C U51A U76C C81U | 0.3
24 | A5U A15U A21G U26C U76C C81U | 0.29

Row | Variant | self-cleavage
25 | A5U A15U A35U G53C U58C | 0.22
26 | A5U A15U C23G U49C A64G U67A | 0.23
27 | A5U A15U C27U U66C U67C | 0.19
28 | A5U A15U G16A A28G A45U | 0.1
29 | A5U A15U G42U A56U U69C | 0.12
30 | A5U A15U U25C | 0.36
31 | A5U A15U U43A G61A U67A A75U U76C | 0.32
32 | A5U A15U U67A | 0.36
33 | A5U A18C C39A U60C U80C | 0.11
34 | A5U A18G A20C U26C U41C G63A | 0.49
35 | A5U A18G A20U C40A U48A | 0.4
36 | A5U A18G A20U U51C G63A | 0.04
37 | A5U A18G A35G C59A U67C | 0.31
38 | A5U A18G A47U U48C | 0.13
39 | A5U A18G A56G A57G U60C U80C | 0.18
40 | A5U A18G A64U | 0.25
41 | A5U A18G A77G | 1.03
42 | A5U A18G C23U A75U | 0.08
43 | A5U A18G U41C | 0.89
44 | A5U A18G U41C U67C | 0.21
45 | A5U A18G U43C | 0.23
46 | A5U A18G U43C A45G U72C A77G | 0.33
47 | A5U A18G U51A A56G U60G | 0.26
48 | A5U A18G U58C U69C | 0.7

Row | Variant | self-cleavage
49 | A5U A18G U67C U78A | 0.18
50 | A5U A18G U80A | 1.19
51 | A5U A18U A20G U31C C79G | 0.11
52 | A5U A18U A20U U66C | 0.26
53 | A5U A18U C32G U48C | 0.2
54 | A5U A18U G30U U72C | 0.28
55 | A5U A18U U25C U78A | 0.4
56 | A5U A18U U26A U48A U51A | 0.23
57 | A5U A18U U26C | 0.33
58 | A5U A18U U26C A77C U80C | 0.17
59 | A5U A18U U26G U80A | 0.05
60 | A5U A18U U31A U49C U80A | 0.09
61 | A5U A18U U41A A65G U66A | 0.16
62 | A5U A18U U43G U49C | 0.06
63 | A5U A18U U69G U72C | 1.09
64 | A5U A20G A28G U58C A64G U72C | 0.2
65 | A5U A20G A35C U41C A77G U80A | 0.42
66 | A5U A20G C40A U58A A64G U66C | 0.09
67 | A5U A20G U25C | 0.49
68 | A5U A20G U26C A57G U66C | 0.14
69 | A5U A20G U48A U66C | 0.08
70 | A5U A20G U49C A75U | 0.67
71 | A5U A20G U54C U60C U80C | 0.44
72 | A5U A20U C23U A35G U74C | 0.26

Row | Variant | self-cleavage
73 | A5U A20U U25C G33A U41A G73A | 0.53
74 | A5U A20U U26A A57G U66G U80C | 0.14
75 | A5U A20U U43C U66C U78C | 0.13
76 | A5U A20U U48A A64G U67C | 0.17
77 | A5U A21G A28G A45G U60G | 0.14
78 | A5U A21G A28U C50G U51C A56G | 0.11
79 | A5U A21G A35G C68G | 0.49
80 | A5U A21G A47U U51C A64U | 0.14
81 | A5U A21G C29U C37U U43G A77U | 0.33
82 | A5U A21G G30U U41C A77G | 0.13
83 | A5U A21G U25C | 0.53
84 | A5U A21G U26C A35U U60C C62A G73U | 0.05
85 | A5U A21G U26C A56C A64U | 0.17
86 | A5U A21G U26C C40A U60A | 0.07
87 | A5U A21G U26C U51C U78C U80C | 0.13
88 | A5U A21G U41A C71U U72C U80C | 0.06
89 | A5U A21G U43A U69C | 0.37
90 | A5U A21G U43G | 0.43
91 | A5U A21G U48C U67C | 0.32
92 | A5U A21G U54C | 0.82
93 | A5U A21G U60A | 0.36
94 | A5U A21G U60C | 0.22
95 | A5U A21U U43A A65G | 0.35
96 | A5U A21U U48C U69G A75G U78C | 0.06

Row | Variant | self-cleavage
97 | A5U A28C A35G A45G | 1.22
98 | A5U A28C U31A A35G U60C | 0.52
99 | A5U A28G A35U U51A | 0.2
100 | A5U A28G A45G U51A U80C | 0.44
101 | A5U A28G A57U | 0.49
102 | A5U A28G C37U A56G U60C | 0.13
103 | A5U A28G C38U U54A A57G U80C | 0.09
104 | A5U A28G C38U U58A A77U | 0
105 | A5U A28G C40A C50U A64C U69C | 0.14
106 | A5U A28G C40U U43A A57G G73A A75G | 0.39
107 | A5U A28G C44U U54C A75U U78C | 0.13
108 | A5U A28U A45G A56U | 0.57
109 | A5U A28U U41C U66C | 0.34
110 | A5U A28U U49A U51C U78C | 0.5
111 | A5U A28U U60C A64G U69A U74A | 0.3
112 | A5U A35G A45G U51A A64U | 1.01
113 | A5U A35G A47C | 1.21
114 | A5U A35G A64G | 1.25
115 | A5U A35G A65G | 1.14
116 | A5U A35G G36C U54C C62U U80C | 0.31
117 | A5U A35G U43A A75G | 1.3
118 | A5U A35G U49C U80A | 1.14
119 | A5U A35U A45G U48C U67C | 0.12
120 | A5U A35U A57G U60C | 0.2

Row | Variant | self-cleavage
121 | A5U A35U A65G U67A U76C A77G | 0.09
122 | A5U A35U C40G U60C | 0.06
123 | A5U A35U G42C U60C U69C G73A U80G | 0.13
124 | A5U A35U G52U | 1.1
125 | A5U A35U G61C U76C | 0.22
126 | A5U A35U U41A G63A U72C | 0.11
127 | A5U A35U U48C U67A G70A U72C | 0.19
128 | A5U A35U U49A U78C | 0.32
129 | A5U A35U U51A U66C U69A | 0.29
130 | A5U A35U U51C | 0.62
131 | A5U A35U U80C | 0.67
132 | A5U A45G G53C G61C U69A | 0.37
133 | A5U A45G U49C U74A | 0.62
134 | A5U A45U A56U A64G U66C U76C | 0.38
135 | A5U A45U A57G | 0.67
136 | A5U A45U U60G | 0.74
137 | A5U A45U U67A | 0.24
138 | A5U A47G A56G | 0.61
139 | A5U A47G A65G | 0.37
140 | A5U A47G G55A U72C | 0.98
141 | A5U A47G U51A A65G U74C | 0.83
142 | A5U A47G U51C | 0.95
143 | A5U A47G U60A | 0.39
144 | A5U A47G U60C U66C | 0.15

Row | Variant | self-cleavage
145 | A5U A47G U78C | 0.86
146 | A5U A47U A56G | 0.55
147 | A5U A56G C62U A64G U80C C81U | 0.3
148 | A5U A56G U72C U74C | 1.08
149 | A5U A56U U69C U72C U76C | 0.17
150 | A5U A57C A64G U66A A75U | 0.08
151 | A5U A57G A65U | 0.19
152 | A5U A57G U58C A65G U78C | 0.29
153 | A5U A57U U69A | 0.22
154 | A5U A57U U72C | 0.89
155 | A5U A64G U72A A77G | 1.11
156 | A5U A64U U67A | 0.3
157 | A5U A64U U69A | 0.37
158 | A5U A65U U69C | 0.29
159 | A5U A77G U78C | 0.65
160 | A5U C11A U31C U43C U51C U67C | 0.05
161 | A5U C11G A13U G24A U51G U78A | 0.08
162 | A5U C11G U25C U41C U43C U49C U76C | 0.12
163 | A5U C11G U25C U43C U51C U67C | 0.06
164 | A5U C11G U31A | 0.14
165 | A5U C11U A13G A47G U49C U58A U80C | 0.31
166 | A5U C11U A15U A18U A20G A45G U69C | 0.23
167 | A5U C11U A20G U41C A47G U49C | 0.04
